# Reference: the supplement of paper PMC3334620
# The full ranking holds about 33,000 sequences; the median of “E-score (-0.5 to 0.5)” is about -0.043, and the highest 2% start at about 0.37. Some of the results follow.
# Target: T1, Upc2 (UniProt Q12151)
# T1 sequence: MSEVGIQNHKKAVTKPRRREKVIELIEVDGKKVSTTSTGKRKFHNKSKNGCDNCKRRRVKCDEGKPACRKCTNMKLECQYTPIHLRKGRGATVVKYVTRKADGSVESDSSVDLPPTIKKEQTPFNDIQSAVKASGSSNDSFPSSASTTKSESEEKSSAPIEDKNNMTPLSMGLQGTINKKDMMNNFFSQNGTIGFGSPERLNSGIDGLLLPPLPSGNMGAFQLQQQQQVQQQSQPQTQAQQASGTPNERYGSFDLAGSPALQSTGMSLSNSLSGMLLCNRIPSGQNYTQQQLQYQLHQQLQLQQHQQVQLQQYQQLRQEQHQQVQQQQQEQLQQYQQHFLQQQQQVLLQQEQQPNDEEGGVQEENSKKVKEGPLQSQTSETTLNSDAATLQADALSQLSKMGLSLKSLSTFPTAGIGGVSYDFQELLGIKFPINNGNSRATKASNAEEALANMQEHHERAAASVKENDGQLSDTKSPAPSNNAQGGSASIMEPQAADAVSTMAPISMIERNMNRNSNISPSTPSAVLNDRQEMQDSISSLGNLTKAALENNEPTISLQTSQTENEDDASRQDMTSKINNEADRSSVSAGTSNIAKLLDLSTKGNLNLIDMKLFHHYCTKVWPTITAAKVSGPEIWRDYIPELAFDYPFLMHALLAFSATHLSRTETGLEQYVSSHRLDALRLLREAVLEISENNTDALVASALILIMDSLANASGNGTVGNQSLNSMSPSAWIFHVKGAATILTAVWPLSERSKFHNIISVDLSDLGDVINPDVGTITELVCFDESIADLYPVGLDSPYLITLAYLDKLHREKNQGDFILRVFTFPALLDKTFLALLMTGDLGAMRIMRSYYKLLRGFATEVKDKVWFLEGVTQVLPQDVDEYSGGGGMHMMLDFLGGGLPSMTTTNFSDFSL
# Assay: PBM E-score (8-mer binding enrichment) (E-score (-0.5 to 0.5)); higher = stronger / more preferred TF binding; most listed sequences are background and not binding sites
# Conditions: protein concentration: 200 nM; construct: GST-full length
# In short: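 Each ungapped eight-base word and its reverse complement, pooled, received an E-score from the Universal PBM Analysis Suite. Underlying scans, normalised with masliner, recorded fluorescent anti-GST bound to GST-tagged yeast transcription factors. These were applied at about 100-200 nM to universal all-10-mer Agilent arrays double-stranded by primer extension.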
row,Sequence,PBM E-score
1,AACAGCCA,0.0964
2,CTCTAATA,-0.067
3,ACCTCGTG,0.2
4,CTACATCA,-0.309
5,TAGTATCA,0.0429
6,GAAAGGAA,-0.0406
7,AGGTGATG,-0.274
8,GCACTGTA,0.157
9,ATTGGAAC,-0.0244
10,AATGACCT,-0.184
11,CCATGGAA,-0.229
12,GTGTGGAA,0.0388
13,CTCTGTTA,-0.0751
14,AGTAGAGG,-0.146
15,TAACTGTA,0.133
16,AGTTACGC,0.0981
17,GCCACGAC,0.0171
18,CTGACCAG,-0.147
19,ATAGACGG,-0.125
20,AGCGAGAG,0.229
21,GAATGCCC,0.0462
22,ATGTGGAG,-0.168
23,CCAGATTC,-0.298
24,CACGCCCG,0.111
25,TCGCAGCA,-0.00639

row,Sequence,PBM E-score
1,GAAACATC,-0.115
2,ACCTAATC,0.105
3,AAAGATAT,-0.00132
4,GGAAGCAA,-0.0611
5,GACACGGC,-0.187
6,ATCATTTA,0.184
7,CATAAGGC,0.0399
8,ATTGCGCG,0.111
9,AAACCCTG,-0.0046
10,CCCCAGCG,-0.23
11,CACTCGGG,0.0146
12,TACCCCAA,-0.158
13,AGGTGCTG,-0.387
14,AAAATTAG,-0.155
15,AACGAGAC,0.437
16,CATACAAA,0.114
17,AATACAGT,-0.0568
18,CTCACGTA,0.141
19,AAGTTTAA,-0.0222
20,CGAACGTC,0.135
21,AAAGGGTT,-0.176
22,ACATACAA,-0.112
23,GACCTGCA,-0.235
24,ATGCCTGA,-0.198
25,ATTAGCCC,-0.138

row,Sequence,PBM E-score
1,CTCCCAAG,-0.163
2,GTCCTTCA,-0.276
3,CATCCGTC,0.0263
4,AGATTGCC,-0.282
5,CGACAATA,0.212
6,TCGCATAA,0.383
7,GTGATACA,-0.0293
8,ACTCAGGC,-0.25
9,CCTGTCAA,-0.0925
10,AGCACCCT,-0.2
11,GTTATGTA,-0.097
12,ATCCATTG,-0.121
13,GGCATGGA,-0.201
14,AGCGCCAG,0.0891
15,CTGAATGC,-0.251
16,AACATATC,0.0754
17,CGGGAGAC,-0.215
18,GCTCGGGA,0.0612
19,AGGAGCTG,-0.439
20,AAGGGCGA,-0.141
21,TCCAGGGA,-0.201
22,CACACTCC,-0.0542
23,ACAGGGCG,0.0317
24,ATCCCGTG,0.0975
25,AAGTAATC,-0.0781

row,Sequence,PBM E-score
1,CCATGCCA,-0.227
2,AGTGAAAG,-0.16
3,CAAGGTCA,-0.0884
4,ATTCTCGC,-0.118
5,ATGTGTGA,-0.171
6,ATCTTTCC,-0.0675
7,GATACGTA,0.254
8,CCCGTTTC,0.197
9,CAGGATAG,0.0798
10,AGGTGCCC,-0.0887
11,ATGAACAT,-0.0224
12,CAAACTAG,-0.105
13,ATCTTGGC,-0.0793
14,GAACAGTC,0.0834
15,AGAAAGAG,-0.257
16,CGGTTACA,0.156
17,CGTGATAG,0.106
18,CATTACCC,-0.19
19,CATCGCCC,-0.0703
20,CTAAACTA,-0.0447
21,CGCCCAAG,-0.0616
22,TCGAATAA,0.257
23,CCAGACAC,0.0022
24,CTCGGTCC,0.179
25,AAGGGCGT,0.0524

row,Sequence,PBM E-score
1,AGGTAACG,0.0398
2,CATTTTCG,0.0944
3,CACTCTCG,0.175
4,ACAGGCTA,-0.111
5,TGATTAAA,0.0154
6,ACCGAGAT,0.126
7,ATTTTAAG,0.0623
8,CCTGCGAG,-0.206
9,GCTAGACA,-0.184
10,GGATAGAA,0.021
11,CGGCTGTA,-0.137
12,CTCCTGAA,-0.106
13,AACCGAAG,0.202
14,AGACGTAA,0.00819
15,AAGATACC,-0.131
16,GCCCTGCA,-0.275
17,CCACCTCC,-0.394
18,ACTTCCGA,-0.024
19,CGTTCAGC,0.396
20,GAATACGC,0.175
21,ACCGTCAA,-0.0393
22,AGGCCCAC,-0.199
23,AAGCCGAC,-0.00759
24,AACTTGGA,0.0023
25,GGGATGAC,-0.14

row,Sequence,PBM E-score
1,CGTCATAG,-0.0726
2,GAACATAA,0.0237
3,TCACCGCA,-0.186
4,CCAGCTGG,0.103
5,AACCGCGA,0.05
6,AGGGCGAC,-0.157
7,AGTAGTGC,-0.241
8,GCCTAAAC,0.265
9,ATGGCCGA,-0.12
10,GGCGGCAA,-0.287
11,TCGGGTAA,0.151
12,CGGCCTGC,-0.0561
13,AGCGCGTG,0.137
14,GCGGAGAC,-0.0396
15,ATTCCACG,-0.163
16,TGACACCA,-0.217
17,CGGAAGCC,-0.0575
18,AGTGGCGA,-0.073
19,GCAACATA,0.0896
20,GTGTCTGA,-0.145
21,GCGAAGAA,0.0788
22,GTGTCCTA,-0.0178
23,GACTAAGA,-0.0274
24,AAGACGTA,0.212
25,AAGCGGAT,-0.0988

row,Sequence,PBM E-score
1,ATGAGGTA,-0.0929
2,TCCGCACA,-0.183
3,ATAAAAAA,0.0851
4,CGTGGCGA,-0.0678
5,GGGTACTA,0.156
6,AACGTTAG,0.043
7,CACTCCTA,-0.26
8,CTAAATTC,0.0497
9,CGGTTCAC,-0.117
10,CTTCTAAA,0.0332
11,TAGACTGA,-0.094
12,CGATCCAG,0.0415
13,GTTCGGCA,0.0731
14,ATCAGTTA,0.127
15,CTTTTCTA,-0.0661
16,AGGTGGAT,-0.111
17,ACGATGAT,0.332
18,AAAATACC,-0.00403
19,AAGACCCC,-0.132
20,TAATGGAA,-0.041
21,CGAATCAC,0.0456
22,ACTCACCA,-0.181
